Results: the supplement of paper PMC3334620
Over roughly 33,000 sequences, “E-score (-0.5 to 0.5)” has its median near -0.013; the highest 2% begin near 0.3. This is one part of the list.

biological target: T1, Msn1 (UniProt P22148); test: PBM E-score (8-mer binding enrichment) (E-score (-0.5 to 0.5)); higher = stronger / more preferred TF binding; most listed sequences are background and not binding sites; conditions: protein concentration: 200 nM; construct: GST-full length
T1 sequence: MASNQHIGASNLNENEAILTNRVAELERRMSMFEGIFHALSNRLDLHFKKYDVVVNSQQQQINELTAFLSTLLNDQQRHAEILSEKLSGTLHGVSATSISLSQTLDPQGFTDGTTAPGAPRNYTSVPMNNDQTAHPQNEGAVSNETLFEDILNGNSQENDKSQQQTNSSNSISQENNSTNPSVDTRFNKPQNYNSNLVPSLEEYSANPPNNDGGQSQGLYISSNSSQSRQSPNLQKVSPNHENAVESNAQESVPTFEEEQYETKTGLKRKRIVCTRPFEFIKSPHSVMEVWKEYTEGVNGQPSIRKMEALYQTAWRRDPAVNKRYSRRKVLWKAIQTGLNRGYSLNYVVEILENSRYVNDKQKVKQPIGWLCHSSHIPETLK
In short: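 Detection of bound protein used fluorescent anti-GST, with scans normalised by masliner. The proteins were GST-tagged yeast transcription factors applied at about 100-200 nM to universal all-10-mer Agilent arrays made double-stranded by primer extension. Each ungapped eight-base word, pooled with its reverse complement, was scored with an E-score from the Universal PBM Analysis Suite.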

Sequence | PBM E-score
AGTCCGGA | 0.267
AGTAGCGA | 0.0595
GGAAGCTA | 0.106
CTGGTTGA | -0.207
GCGGACAA | 0.44
AGTATGCA | -0.0435
AAGAGTTG | 0.0512
CACTCGAA | 0.0074
AGGGAGGG | -0.283
GGCTATCA | -0.0415
AGTAGTGA | 0.121
AGAGGGAT | -0.274
CTCTACCA | -0.116
GTCCGGAC | 0.406
CACCCGGC | -0.407
CTCGCCAG | -0.284
AGAATGAC | 0.159
ACCTCAGG | -0.129
GTTCCAAC | -0.0185
ACTCGCTG | -0.0996
ACCAATCG | 0.0921
CAGAGGCG | -0.187
TAGTTACA | -0.173
AAGTGAAT | 0.146
CAGTCTTC | -0.095

Sequence | PBM E-score
AACTAGAC | 0.222
CGTATACG | -0.133
AGCTCGAG | 0.0239
GAGCGCAC | -0.0759
GTCATATA | 0.197
ATCAGGCC | -0.0335
GAATTTCC | 0.227
TGCCGCCA | -0.00848
GAAGGAAC | -0.105
AATCAGAT | 0.0763
AAGTCGGA | 0.158
CTCTCGAA | -0.0563
GTGAACTA | 0.165
GGATATGA | -0.00723
CGGAAGAG | -0.169
ACCTACGG | -0.349
ACAAACTC | 0.101
AAAAATAC | -0.0146
CCATCAGC | -0.0912
CCCAATCC | -0.177
GGAGACAA | 0.32
CCAGGTTC | -0.278
AATCCTAT | 0.185
GCGACCCA | -0.164
CTTTCCTC | -0.15

Sequence | PBM E-score
GCTGTGCA | -0.219
CCCCCCGC | -0.378
GGCAGGCC | -0.134
GGCCAGCA | -0.11
CAAAGGTG | -0.0702
ATGCAGCG | -0.15
AAAACGAC | 0.154
AGAATAGG | -0.0251
AGAGGATA | -0.0113
CCTGCCAG | -0.155
ACGTTCCG | 0.00237
GTTCCGGA | 0.162
AGTGGTAC | -0.0512
ATGATCCG | -0.00539
CCCCATCA | -0.0166
CAGCTATC | -0.0627
ATCTAATA | 0.0267
CGTAGATC | -0.0204
ACTAGACA | 0.274
AGCTTCGC | -0.199
TATTGTGA | 0.0467
AAAGACTA | -0.0897
CGTCCTAG | 0.13
CAAGGGAG | -0.161
GCGGGAGC | -0.244

Sequence | PBM E-score
AAGCCGGT | -0.0922
ATCCCCAT | -0.131
ATGTATGC | 0.0615
CCGTACGC | -0.0211
CACGTGTA | -0.0987
CCACATGG | -0.212
GACATCTA | 0.404
AGTACGAC | 0.0524
AGGAGAAG | -0.265
AGCCATTC | -0.0296
CTTGTCAA | 0.162
AATAATAT | 0.33
CTAGGGAC | 0.134
GTGTCTCA | 0.286
CACAGAAC | -0.115
CAGCCATA | -0.0359
AAGTCTGA | 0.016
CGAGGCCG | -0.0921
GCAGTAGC | -0.289
AACGAATA | -0.0354
CACCCTCG | -0.0601
ACGGGGAT | -0.076
CTTGGGTC | -0.123
AGGCAATA | -0.0129
TTGGAAAA | 0.0431

Sequence | PBM E-score
GAGGTCCA | -0.0849
CAAACTGG | -0.014
ACGCGAGC | 0.06
AGCTGTTG | 0.152
TCGAGTAA | 0.157
ATGAGAAG | -0.0382
AGGCGCCT | -0.0369
CAGACCGC | -0.0442
ACTATCAG | 0.0656
AATCAGTC | 0.126
AGATCTCG | 0.0215
CCAAAAAC | 0.0933
CACATTCA | -0.0795
ACCGGGCG | -0.163
CAATTGGA | 0.175
ATGGTTTC | 0.153
ATGCTAGC | 0.063
AGTACTGA | 0.129
CTTATAGA | -0.114
GACAATCC | 0.355
TAAGTCAA | 0.098
AAGCAAGA | -0.0395
ACCATTGA | -0.0256
ACCACGCC | -0.0524
GCCTACGA | 0.0407

Sequence | PBM E-score
TCGACCGA | 0.0492
GTATCGTA | 0.145
CAAGTCCA | 0.115
CGAATAAG | -0.0509
CAACACGA | -0.00668
AACGCAAG | 0.0358
CAACCCCC | -0.313
CGGCCCGA | -0.0194
CCGTTTTA | 0.0515
CCAATTGG | 0.168
GCTGCTTA | -0.144
GACTAACC | -0.0912
ACATAGTG | 0.0558
ACGAAACG | 0.0382
TAGATAAA | 0.117
CACTCAAC | -0.0866
GGTGGATA | 0.0155
GACAAGTA | 0.369
ACAAACCG | 0.168
CGCTCGAA | -0.0779
AGGTCCTG | 0.0441
AGAGCTTC | -0.16
AAACCACA | 0.0149
ATCTGAAA | 0.17
AGACGTCC | 0.199

Sequence | PBM E-score
CCCTGTAG | -0.146
GATACTGC | 0.143
CACCGGGG | -0.36
AGCGTGCA | -0.125
ATTCACTG | -0.093
CTAATGGC | -0.0257
CCCACAAC | -0.0623
CGGTGGGA | -0.113
CACTCGCA | -0.0465
AAAACTCT | 0.0335
ATAGGCCA | -0.0607
CACGGAGG | -0.0865
CAAGTATA | -0.0799
CATACGGG | -0.0153
AGCCGTCG | 0.136
AGGGAAGA | 0.0181
ACTGCGCG | -0.0443
AAATACTG | 0.101
TTTAAAAA | 0.106
GACTATTA | 0.12
ATAACGAT | -0.192
AGGGAATC | -0.256
CATGTAGG | 0.0217
ATGGATAA | 0.0593
ATGGCAGC | -0.117

Sequence | PBM E-score
AGGAAAAC | -0.0136
CTCACTGC | -0.0256
ACGTGATG | -0.0245
ACCACGAA | 0.03
GTGGACGA | 0.18
AAACAGCG | 0.00804
CTCTGTGA | 0.126
CGTACCAA | 0.182
AGGTGAGA | 0.224
GGCTATTA | 0.0244
CTAGTACA | 0.308
AGCTTTCC | -0.198
AGAGCCGA | 0.041
ATCCGAAC | -0.00081
GATTGTCA | 0.245
ATAACCCA | -0.0169
CCGTTGGA | -0.0378
AGAGAGAG | -0.239
AACCTAGC | -0.144
CAATTCCC | 0.0597
CATTGCAC | 0.0641
TGCGTCAA | -0.0491
TCCGACGA | 0.172
ACATTAAT | 0.155
CTTCAATC | -0.0501

Sequence | PBM E-score
CGGAGGGC | -0.38
ACCCTCGA | -0.189
AAAATGAC | 0.179
AGAACCCT | -0.199
CAAATAGA | 0.231
CTCCTAGA | -0.0389
AGCTGTTA | -0.0398
GTACAAGA | 0.272
AAGCTGTA | 0.0383
ATTGAGCA | 0.0739
ACATGACT | -0.0227
CGCAGTCA | -0.301
ACCTGTGG | -0.223
CTATTGCA | -0.11
ACCGTCGC | -0.0915
ACGCATAC | 0.147
CGCTGGAC | 0.00307
AGTTTCAC | -0.0676
CAGTTCCC | -0.0791
